Hit rate of the full screen: of about 390,000 compounds, about 1,400 (0.36%) were called active. The inconclusive results got no clear call from the source; some entries with a clear call stand among them for comparison. Calls follow the shape of the dose curve; as a rule, active = well fitted inhibition curve with a large enough effect; inconclusive = small, poorly fitted or top-dose-only effect; inactive = no such curve, though single readings can be large or run the other way. Potencies of inconclusive entries are doubtful fits and often do not repeat.
These compounds were tested against Flap endonuclease 1 (Homo sapiens) (UniProt P39748) (assay: qHTS Assay for the Inhibitors of Human Flap endonuclease 1 (FEN1).). Conditions: Recombinant FEN1 flap cleavage, fluorescence, 15 min; series mostly up to 114 µM.
UniProt P39748, sequence (P39748 whole entry, looked up): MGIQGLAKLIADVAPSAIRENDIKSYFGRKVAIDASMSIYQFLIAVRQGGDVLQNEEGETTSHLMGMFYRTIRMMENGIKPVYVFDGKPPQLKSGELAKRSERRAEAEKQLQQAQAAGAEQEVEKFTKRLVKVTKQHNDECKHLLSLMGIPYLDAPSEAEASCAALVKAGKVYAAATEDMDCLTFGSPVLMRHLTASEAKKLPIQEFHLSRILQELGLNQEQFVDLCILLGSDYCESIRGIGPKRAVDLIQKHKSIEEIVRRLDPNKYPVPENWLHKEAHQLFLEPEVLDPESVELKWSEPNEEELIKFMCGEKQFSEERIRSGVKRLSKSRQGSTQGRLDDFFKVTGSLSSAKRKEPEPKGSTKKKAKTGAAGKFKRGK
Outline: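 Read-out was taken twice, immediately and after 15 min, following addition of 50 nM substrate to 10 nM FEN1 that had sat with test compound for 15 min at room temperature. Curves came from a four-parameter Hill model.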
In the case of `O=C(Nc1ccc(F)c(Cl)c1)C1CCN(c2ncccn2)CC1`, the Potency is reported as “inactive”.
For `O=C(/C=C/c1ccc(O)c(O)c1)OC(Cc1ccc(O)c(O)c1)C(=O)O` (centres undefined), the Potency was inconclusive: 50.1 µM [inhibitor, partial curve, poor fit].
In the case of `CN(C)c1ccc2c(O)cc(=O)n(C)c2c1`, the Potency is reported as inconclusive: 100 µM [inhibitor, partial curve, poor fit].
`CCCn1cc(S(=O)(=O)CC(=O)Nc2ccc(OC)cc2OC)c2ccccc21` was tested, and the Potency was “inactive”.
In the case of `CC(=O)NN1C(=O)/C(=C/c2ccc(Br)o2)SC1=S`, the Potency is reported as active: 39.8 µM.
With `O=C(Nc1ccccc1)Nc1ccc(NC(=O)c2ccccc2O)cc1` the Potency was “inactive”.
With `Oc1cccc(CN2CCOCC2)c1O` the Potency was inconclusive: 89.1 µM [inhibitor, single point].
With `CC(C)=CCc1c(-c2ccc(O)cc2O)oc2c3c(cc(O)c2c1=O)OC(C)(C)C=C3` the Potency was inconclusive: 31.6 µM [inhibitor, partial curve, poor fit].
For `COc1ccc(S(=O)(=O)N2CCC(C(=O)NCCC(=O)Nc3cccc(Cl)c3)CC2)cc1`, the Potency was inconclusive: 100 µM [inhibitor, single point].
For `Cc1cc[n+](Cc2ccc([N+](=O)[O-])cc2)cc1`, the Potency was “inactive”.
`CC(C)c1ccc(/C=C2\SC(=O)N(CC(=O)NC3CCS(=O)(=O)C3)C2=O)cc1` (centres undefined) was tested, and the Potency was “inactive”.
With `COc1ccccc1CN(Cc1cc2cc3c(cc2[nH]c1=O)OCCO3)Cc1nnnn1Cc1ccco1` the Potency was inconclusive: 50.1 µM [inhibitor, partial curve].
In the case of `COc1cccc(CC2(CO)CCCN(Cc3ccccc3-c3ccco3)C2)c1` (centres undefined), the Potency is reported as inconclusive: 12.6 µM [inhibitor, partial curve, poor fit].
For `Cc1nn(CC(=O)c2ccc(Cl)s2)c(C)c1[N+](=O)[O-]`, the Potency was “inactive”.
`COc1ccc(-n2c(=O)c3c(c4cc(OC)ccc4n3C)n(Cc3c(F)cccc3Cl)c2=O)cc1` was tested, and the Potency was “inactive”.
With `CN(C)c1ccc(/C=C(/C#N)C(=O)Nc2nc3c(s2)CCN(Cc2ccccc2)C3)cc1` the Potency was inconclusive: 89.1 µM [inhibitor, partial curve, poor fit].
In the case of `Cc1nc2c3cc(Cl)ccc3n(CCN3CCCCC3)c2s1`, the Potency is reported as inconclusive: 89.1 µM [inhibitor, partial curve, poor fit].
In the case of `COc1ccc(NC(=O)Cn2nc(C)c3c(C)n(-c4ccccc4)nc3c2=O)cc1OC`, the Potency is reported as inconclusive: 3.55 µM [inhibitor, partial curve, poor fit].
For `CC1=C(c2ccccc2)[N+](=O)C2(CCCC2)N1[O-]`, the Potency was “inactive”.
`COc1ccccc1NC(=O)C(=N\O)/C(C)=N/O` was tested, and the Potency was “inactive”.
With `CN(C)CCCN(C(=O)c1ccc(Cl)s1)c1nc2cc3c(cc2s1)OCO3` the Potency was inconclusive: 89.1 µM [inhibitor, single point].
`CCCCC1(C)Cc2ccccc2C(=S)N1` (centres undefined) was tested, and the Potency was “inactive”.
With `O=[n+]1c2c(n([O-])c3cc(F)c(N4CCCC4)cc31)CCC2` the Potency was “inactive”.
In the case of `CCOC(=O)c1c(C=O)c(C)n(Cc2ccc(Cl)cc2)c1C`, the Potency is reported as inconclusive: 79.4 µM [inhibitor, partial curve, poor fit].
For `O=C(O)c1cccc(NC(=O)c2ccc(N3C(=O)c4ccc(C(=O)Nc5cccc(C(=O)O)c5)cc4C3=O)cc2)c1`, the Potency was “inactive”.
With `C=CCn1c(NC(=O)c2ccccc2Cl)c(C#N)c2nc3ccccc3nc21` the Potency was inconclusive: 79.4 µM [inhibitor, partial curve, poor fit].
With `O=C(CCCN1C(=O)c2ccccc2C1=O)OC1CSCC1NC(=O)c1ccccc1` (centres undefined) the Potency was “inactive”.
In the case of `O=C(COC(=O)c1ccc(C(F)(F)F)cc1)Nc1cccc(S(=O)(=O)N2CCCCC2)c1`, the Potency is reported as inconclusive: 25.1 µM [inhibitor, partial curve, poor fit].
For `CC(=O)c1c(C)oc2c(Cl)cc(NS(=O)(=O)c3cc(C)c(C)cc3C)cc12`, the Potency was inconclusive: 31.6 µM [inhibitor, single point].
With `COc1ccc(/C=C2\CN(Cc3ccccc3)C/C(=C\c3ccc(OC)c(O)c3)C2=O)cc1O` the Potency was inconclusive: 56.2 µM [inhibitor, partial curve, poor fit].
With `CN(CCO)c1nc(-c2cccs2)nc2ccccc12` the Potency was inconclusive: 15.8 µM [inhibitor, full curve].
`O=S(=O)(O)c1cc(O)c2c(O)c(N=Nc3cc(Cl)ccc3O)c(S(=O)(=O)O)cc2c1` was tested, and the Potency was inconclusive: 20 µM [inhibitor, full curve, poor fit].
In the case of `c1ccc(-c2nc(-n3ccnc3)nc(-n3ccnc3)n2)cc1`, the Potency is reported as inconclusive: 31.6 µM [inhibitor, full curve].
With `COc1ccc(C2C(C#N)=C(N)Oc3n[nH]c(C)c32)cc1CN1CCN(c2ccc(F)cc2)CC1` (centres undefined) the Potency was inconclusive: 79.4 µM [inhibitor, partial curve, poor fit].
For `COc1ccc(C(C)=O)cc1COC(=O)CNC(=O)c1ccc(F)cc1`, the Potency was “inactive”.
For `CC(C)CN(C(=O)COC(=O)c1cc2c(s1)CCC2)C1CCS(=O)(=O)C1` (centres undefined), the Potency was inconclusive: 89.1 µM [inhibitor, single point].
`Cc1cccc(NC(=O)C(=O)NCC(c2cccnc2)N2CCc3ccccc32)c1C` (centres undefined) was tested, and the Potency was “inactive”.
`Cc1cccc2c(N=O)c(O)[nH]c12` was tested, and the Potency was “inactive”.
In the case of `CCCCCCCCCCCCCCCCCCNc1ccn(C2OC(COP(=O)(O)OCC3OC(n4cc(F)c(=O)[nH]c4=O)CC3O)C(O)C2O)c(=O)n1` (centres undefined), the Potency is reported as inconclusive: 56.2 µM [inhibitor, partial curve, poor fit].
`CC(=O)N1c2ccc(S(=O)(=O)N3CCCCCC3)cc2CC1C(=O)NCc1cccc(F)c1` (centres undefined) was tested, and the Potency was “inactive”.
`Cn1cncc1C#Cc1c(-c2ccsc2)sc2ccccc12` was tested, and the Potency was inconclusive: 79.4 µM [inhibitor, partial curve, poor fit].
`N#Cc1c(NCCN)nc(-c2ccco2)c2c1CCCC2` was tested, and the Potency was “inactive”.
For `COc1ccccc1N1CCN(C2=Nc3cccc4cccc2c34)CC1`, the Potency was inconclusive: 44.7 µM [inhibitor, partial curve, poor fit].
For `COc1ccc(-c2ccc3c(c2)C2CC3CCN2C(=O)C2CCCCC2)cc1` (centres undefined), the Potency was inconclusive: 79.4 µM [inhibitor, partial curve, poor fit].
Also: nearly all actives have a fitted effect of over 65% in size.
Potency is read from the fitted curve at half-maximal effect; tags tell the direction and shape of the fitted curve.
